Residues, ends and D or L forms follow the SMILES beside them.
System: RAW 264.7 (Mouse leukaemic monocyte macrophage cell line) cells
Test: Phagocytosis assay (Fluorescein-labeled Escherichia coli, flow cytometry)
Type: cell-based
Conditions: RAW 264.7 cells, test peptide 10 micrograms per ml

SMILES: CC(C)[C@H](NC(=O)[C@H](CC(=O)O)NC(=O)[C@H](CCCCN)NC(=O)[C@@H](N)CCCN=C(N)N)C(=O)N[C@@H](Cc1ccc(O)cc1)C(=O)O [Thymopentin, Arg-Lys-Asp-Val-Tyr-OH] (H-RKDVY-OH)
- % of control phagocytosis: 102.9%
